Measurements reported in PubChem BioAssay (NCI).
Values joined by “and” are separate entries in the source; they are usually repeats but may differ in a detail not shown here. Identical values can stand only once.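 Compound exposure: 48 hours, 5 concentrations, 96-well plates. GI50 = concentration required for 50% inhibition of growth. TGI: concentration producing complete growth inhibition.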 Square brackets hold non-standard residues; d marks the D form. Peptide text beside a SMILES is read from it. * marks the point of attachment. ξ: configuration not given here. ξF = NC(Cc1ccccc1)C(=O)O; Cbz = O=C(OCc1ccccc1)*; Aib = CC(C)(N)C(=O)O

The molecules below were run on NCI-H322M lung (assay: DTP human tumour cell line panel, 48 h).

Which TGI does the source give for `Cc1ccn2c(CCc3nnc4cc(C)ccn34)nnc2c1` here?
Its TGI is greater than 100 µM.

Which TGI does the source give for `NCCSCc1ccccc1Cl` here?
Its TGI is greater than 100 µM.

For `CCCNC(=O)c1ccc(Cl)cc1Cl`, which GI50 is on record?
The GI50 was greater than 100 µM.

What about the TGI of the same molecule?
The TGI was greater than 100 µM.

How did the GI50 turn out when `CC(=O)[CH-]C(=O)c1ccccc1.CC(=O)[CH-]C(=O)c1ccccc1.Cl.[O-]c1ccccn1.[O-]c1ccccn1.[Ti+4]` was run?
Its GI50 is greater than 100 µM.

And the TGI?
The TGI was greater than 100 µM.

For `COC(=O)C1=CN(C2CCCCC2)C2(c3ccccc3)c3ccccc3C(=O)OC(=O)C12` (centres undefined), which TGI is on record?
The TGI was greater than 100 µM.

How did the TGI turn out when `Cc1ccc(N=NN(C)C(=O)C(C)N)cc1` (centres undefined) was run?
The TGI was greater than 100 µM.

How did the TGI turn out when `COC(=O)C(C)(C)NC(=O)C(Cc1ccccc1)NC(=O)C(C)(C)NC(=O)OCc1ccccc1` (centres undefined) (Cbz-[Aib]-[ξF]-[Aib]-OMe) was run?
Its TGI is greater than 100 µM.

`O=C(CN1CCOCC1)c1ccc2c(c1)oc(=O)n2CCN1CCCC1` was tested. Which TGI did it give?
Its TGI is greater than 100 µM.

For `CC(C)n1nc(-c2ccc3oc(N)nc3c2)c2c(N)ncnc21`, which GI50 is on record?
The GI50 was less than 0.0127 µM.

What about the TGI of the same molecule?
Its TGI is 0.369 µM and 0.858 µM.

With `CN(C)c1ccc(-c2ccc(N(C)C)c3n[se]nc23)c2n[se]nc12` as the molecule, how does the TGI read?
Its TGI is greater than 100 µM.

For `O=C(NC(Nc1ccc(F)cc1)(C(F)(F)F)C(F)(F)F)C(C(F)(F)F)C(F)(F)F`, which TGI is on record?
Its TGI is greater than 100 µM.

With `COC1=CC(=O)c2c(c(COP(=O)(N(C)CCBr)N(C)CCBr)cn2C)C1=O` as the molecule, how does the TGI read?
Its TGI is 2.57 µM.

How did the TGI turn out when `O=C(Nc1cc(Cl)cc(Cl)c1)/C(Cc1nc2ccccc2[nH]c1=O)=N/NC(=O)c1ccncc1` was run?
Its TGI is greater than 100 µM.

`COc1ccccc1N=N/C(=N\NC(=O)c1ccc(C)cc1)c1ccc(N(CCC#N)CCC#N)cc1C` was tested. Which TGI did it give?
Its TGI is greater than 100 µM.

How did the TGI turn out when `CCOC(=O)c1oc2ccc([N+](=O)[O-])c3c2c1CCC3` was run?
Its TGI is greater than 100 µM.

`O=C(CC(=O)N1N=C(N(c2ccccc2)c2ccccc2)CC1c1ccccc1)Nc1ccc(Cl)cc1` (centres undefined) was tested. Which TGI did it give?
Its TGI is greater than 100 µM.

How did the TGI turn out when `CN(C)C=NCCN1CCOCC1` was run?
The TGI was greater than 100 µM.

`NC(N)=Nc1nc2ccc([N+](=O)[O-])cc2[nH]1` was tested. Which TGI did it give?
The TGI was greater than 100 µM.

How did the TGI turn out when `O=C(NCCN1CCCCC1)c1ccc(I)cc1` was run?
Its TGI is greater than 100 µM.

With `O=C(O)CN1CCN(CC(=O)N2CCN(C(=O)OCc3ccccc3)CC2)CCN(CC(=O)O)CCN(CC(=O)N2CCN(C(=O)OCc3ccccc3)CC2)CC1` as the molecule, how does the TGI read?
Its TGI is greater than 100 µM.

For `CCN(CC)CCN(Cc1ccc(F)cc1)c1ccc(CO)c(Cl)c1`, which GI50 is on record?
Its GI50 is 1.44 µM.

And the TGI?
Its TGI is 6.36 µM.

`O=C(O)CNn1c(SCC(=O)O)nnc(/C=C/c2c(O)ccc3ccccc23)c1=O` was tested. Which TGI did it give?
The TGI was greater than 100 µM.

For `Cc1ccc(/C=C2\CCCC(CN(C)C)C2=O)cc1` (centres undefined), which TGI is on record?
The TGI was 28.4 µM.

`N#Cc1c(Cl)nc2ccccc2c1N=[N+]=[N-]` was tested. Which TGI did it give?
Its TGI is 8.43 µM.

`COc1ccc(/C=C/C(=O)CC(=O)/C=C/c2ccc(OC)cc2)cc1` was tested. Which TGI did it give?
Its TGI is greater than 100 µM.

How did the TGI turn out when `O=C1N[C@@H]2c3c(Br)sc(Br)c3C(=O)[C@@H]2O1` was run?
Its TGI is 21.9 µM.

`O=c1oc2ccc(Cl)cc2cc1-c1cn2ccccc2n1` was tested. Which TGI did it give?
The TGI was greater than 100 µM.

How did the TGI turn out when `SCc1ccc(CS)s1` was run?
The TGI was greater than 100 µM.

Which GI50 does the source give for `COc1cc(-c2cc(/C=C/C(=O)c3ccc(Cl)c(Cl)c3)[nH]n2)cc(OC)c1OC` here?
Its GI50 is 14.5 µM.

What about the TGI of the same molecule?
The TGI was greater than 100 µM.

For `Fc1cccc(Cl)c1C1SCc2nc3cc4ccccc4cc3n21` (centres undefined), which TGI is on record?
Its TGI is greater than 100 µM.

With `O=C(CCCl)NNC1=NCCCCN1` as the molecule, how does the TGI read?
Its TGI is greater than 100 µM.

`Cc1cc2nc3cc(C)c(N)cc3[n+](-c3ccccc3)c2cc1N` was tested. Which GI50 did it give?
Its GI50 is 8.29 µM.

And the TGI?
Its TGI is greater than 100 µM.

Which TGI does the source give for `CC(C)C(C/C=C1/CC(CO)(COC(=O)c2ccccc2)OC1=O)C(C)C` (centres undefined) here?
Its TGI is 28.3 µM.

How did the TGI turn out when `Clc1ccc2nc(-c3ccccc3)nc(Cl)c2c1` was run?
The TGI was greater than 100 µM.

`COc1cc(Nc2nnc3n2S(=O)(=O)c2cc(C)c(Cl)cc2S3)cc(OC)c1` was tested. Which TGI did it give?
The TGI was greater than 100 µM.

Which GI50 does the source give for `CCCCc1n(Cc2ccc3ccccc3c2)cc[n+]1Cc1ccc2ccccc2c1` here?
Its GI50 is 1.38 µM.

And the TGI?
Its TGI is 2.75 µM.

Which results are given for `C[n+]1c(-c2ccc(/C=N/NC(=O)c3ccc(C(=O)N/N=C/c4ccc(-c5cn6ccccc6[n+]5C)cc4)cc3)cc2)cn2ccccc21`?
GI50: > 1000 µM; TGI: > 1000 µM

How did the TGI turn out when `Cc1sc(C)c2c1C(=O)CC2N` (centres undefined) was run?
Its TGI is greater than 100 µM.

With `N#Cc1c(O)c(N=Nc2ccc(Cl)cc2)c(=O)n2c1[nH]c1ccccc12` as the molecule, how does the TGI read?
Its TGI is greater than 100 µM.

How did the TGI turn out when `C(=N\OCCc1ccccc1)/c1cccnc1` was run?
Its TGI is greater than 100 µM.

For `O=C1NC(N2CCCCC2)=N/C1=C\c1ccccc1O`, which TGI is on record?
Its TGI is greater than 100 µM.

For `COc1ccc(/C=C2/NC(=S)N=C2Cl)cc1`, which TGI is on record?
The TGI was greater than 100 µM.

Which TGI does the source give for `CC1(C)C2CC3C4CC5(Nc6ccccc6C5N41)[C@]3(C)CC2=O` (some centres undefined) here?
The TGI was greater than 50 µM.

With `CCOc1ccc(N=NS(=O)(=O)O)cc1` as the molecule, how does the TGI read?
Its TGI is greater than 100 µM.

`Oc1ccccc1C1=NOC(c2ccc(C(F)(F)F)cc2)C1` (centres undefined) was tested. Which TGI did it give?
The TGI was greater than 50 µM.

What does the source list for `N#Cc1c(N)nc(N)nc1N[C@H](c1nc2c(F)ccc(Cl)c2c(=O)n1-c1cccnc1)C1CC1`?
GI50: 3.95 µM; TGI: 24.3 µM

Which TGI does the source give for `O=C1c2ccccc2CC12Cc1ccccc1C2` here?
The TGI was greater than 100 µM.

For `Cc1ncc([N+](=O)[O-])n1CCNCCCn1ccnc1[N+](=O)[O-]`, which TGI is on record?
Its TGI is greater than 100 µM.

For `O=c1c2cc(I)ccc2nc(SCc2n[nH]c(=S)o2)n1Cc1ccccc1`, which TGI is on record?
Its TGI is 48.5 µM.

With `CN(C)CC1CCCCCCCCCC(CN(C)C)C1=O` (centres undefined) as the molecule, how does the TGI read?
Its TGI is greater than 100 µM.

With `Cc1[nH]c(-c2nc3ccccc3[nH]2)c(C)c1C(=O)NC(C)C1CCCCC1` (centres undefined) as the molecule, how does the GI50 read?
The GI50 was 13.4 µM.

And the TGI?
The TGI was 26.9 µM.

`N=C(N)c1ccc(NCCOCCNc2ccc(C(=N)N)cc2)cc1` was tested. Which GI50 did it give?
Its GI50 is greater than 100 µM.

What about the TGI of the same molecule?
The TGI was greater than 100 µM.

With `Cc1c(N/C=C(\C#N)C(=O)c2ccc(Cl)cc2)c(=O)n(-c2ccccc2)n1C` as the molecule, how does the TGI read?
Its TGI is greater than 100 µM.
